{"source": "the supplement of paper PMC11417369", "note": "± gives the standard deviation of the averaged measurements. Some of the results follow.", "data": [{"test_system": "PfAP2-EXP AP2 domain (GST-tagged)", "test": "gcPBM binding intensity (ln(normalized median fluorescence intensity)); higher = stronger DNA binding", "method_in_brief": "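An Agilent 4 × 180k array of primer-extended double-stranded 36-bp intergenic genomic probes, with negative controls, was incubated for 1 h with GST-tagged P. falciparum DNA-binding domains expressed in E. coli. Alexa488 anti-GST antibody detected bound protein, scanned at 488 nm. Binding intensity is the highest Masliner-normalised natural-log median intensity across replicate spots of either probe orientation.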", "values": [{"sequence": "TTTTGAGAAAAAATAAAATAATAAATAAAAATACAT [XGTACX_negctrl_site66]", "gcPBM binding intensity (ln)": "8.7 ± 0.33"}, {"sequence": "AATACAATTGAAAATTGTACTTTGTTTTTTATAAAT [XGTACX_site4080]", "gcPBM binding intensity (ln)": "8.17 ± 0.27"}, {"sequence": "CACATTTCTGTAGTTGCATGTAGAAAAAAAAAAAAA [TGCATGCA_site810]", "gcPBM binding intensity (ln)": "8.72 ± 0.2"}, {"sequence": "TTTTTTTTTTTTGTAACATGCAAACAACAATATGGG [TGCATGCA_site695]", "gcPBM binding intensity (ln)": "8.76 ± 0.45"}, {"sequence": "TATGTTCCGAAGGTTGTACACACATAGAAATATACA [CACACA_site9285]", "gcPBM binding intensity (ln)": "8.81 ± 0.43"}, {"sequence": "GGGAGGATATTACACAGTACCCAGGAAATCTACGGA [XGTACX_site4874]", "gcPBM binding intensity (ln)": "8.78 ± 0.4"}, {"sequence": "ATGTAATTGTATACATGTACGCAAACACAAAAGCAT [XGTACX_site6771]", "gcPBM binding intensity (ln)": "9.14 ± 0.3"}, {"sequence": "AAGGAAAAAACAAATACACACAAAAACGCATTATAA [CACACA_site3466]", "gcPBM binding intensity (ln)": "8.96 ± 0.48"}, {"sequence": "ATGAACTTATTTTAGTGTACTAAAAAATATGACTTC [XGTACX_site470]", "gcPBM binding intensity (ln)": "8.41 ± 0.19"}, {"sequence": "TTTTGTTCATACAAATTGGAACAAGACAAAAATATA [XGTACX_negctrl_site327]", "gcPBM binding intensity (ln)": "8.56 ± 0.38"}, {"sequence": "TACATAATTTTAATCACACACAAACAAACACATACA [CACACA_site194]", "gcPBM binding intensity (ln)": "8.85 ± 0.45"}, {"sequence": "GTAAGTATATATAATAGTACATATATATTAATATAT [XGTACX_site4314]", "gcPBM binding intensity (ln)": "8.46 ± 0.35"}, {"sequence": "TATCATTTTGAAGTATGTACTTATTTTATTAAAATA [XGTACX_site7784]", "gcPBM binding intensity (ln)": "8.51 ± 0.27"}, {"sequence": "TAAATACATAAATACACACACATATATATATATATA [CACACA_site5549]", "gcPBM binding intensity (ln)": "10.2 ± 0.35"}, {"sequence": "ATTATATTAAAATATTCACACACTAACGTAAATCAT [CACACA_site8887]", "gcPBM binding intensity (ln)": "8.19 ± 0.42"}, {"sequence": "TAGGTCATATTTTTTGCACACAAAAAAAAATATAAA [CACACA_site3380]", "gcPBM binding intensity (ln)": "8.52 ± 0.11"}, {"sequence": "CACCTCAATATTCACATACACACAATATCATCGAAG [CACACA_site1675]", "gcPBM binding intensity (ln)": "8.7 ± 0.49"}, {"sequence": "TTTTTCCAATCAGATGCATGTTACTATATTTGGTTC [TGCATGCA_site52]", "gcPBM binding intensity (ln)": "8.79 ± 0.38"}, {"sequence": "TGTATAAGGTTTTTACGTTTTGAAGGATGTATTGTT [CACACA_negctrl_site1245]", "gcPBM binding intensity (ln)": "8.59 ± 0.6"}, {"sequence": "TTTATTATCAAGATTGCACACCCTTATGAACTTTTT [CACACA_site3166]", "gcPBM binding intensity (ln)": "8.91 ± 0.43"}, {"sequence": "TAATTTACACCTACGTGTACACACAAAAATATGTTT [XGTACX_site1868]", "gcPBM binding intensity (ln)": "8.7 ± 0.3"}, {"sequence": "ACAAAAAAAAAGGAAACACACAAAAAAAAAAAATAA [CACACA_site3523]", "gcPBM binding intensity (ln)": "8.44 ± 0.59"}, {"sequence": "ACCTATAAAAAATAATGTACAGGAAGAAATATAAGG [XGTACX_site5822]", "gcPBM binding intensity (ln)": "9.04 ± 0.59"}, {"sequence": "ACTATATTTCTATAATGTACAAAAATAAATCATATG [XGTACX_site3337]", "gcPBM binding intensity (ln)": "8.49 ± 0.45"}, {"sequence": "AAGATCATATATTCGTGGGTATAAAAAGTTATAATA [TGCATGCA_negctrl_site439]", "gcPBM binding intensity (ln)": "8.38 ± 0.57"}, {"sequence": "AGAAATATGTTGAAGCATTTATAATGTAGATATAAG [GTGCAC_negctrl_site640]", "gcPBM binding intensity (ln)": "8.52 ± 0.42"}, {"sequence": "AAAAAAAAAAAAAATACACACAAACACAAATTAAAT [CACACA_site5982]", "gcPBM binding intensity (ln)": "8.71 ± 0.59"}, {"sequence": "GTAATATTATAATATACACACATAGAATATATATAT [CACACA_site413]", "gcPBM binding intensity (ln)": "9.29 ± 0.15"}, {"sequence": "AAAAAAAAAAAAAACACACACATATAACATATTTAA [CACACA_site6745]", "gcPBM binding intensity (ln)": "8.46 ± 0.34"}, {"sequence": "TGTTTACACTTTTTTTGTACACATAATTTTATTTGA [XGTACX_site3760]", "gcPBM binding intensity (ln)": "8.69 ± 0.3"}, {"sequence": "TATTCTAGTCTGCTTACACACATATTTATATTTATA [CACACA_site7432]", "gcPBM binding intensity (ln)": "8.81 ± 0.54"}, {"sequence": "TAATATTTTATTTTTGTTGTGGATCCAAAAAAAAAA [CACACA_negctrl_site846]", "gcPBM binding intensity (ln)": "8.32 ± 0.47"}, {"sequence": "CTATATATTTAAAAAAGTACAAATATAAAAATATAT [XGTACX_site676]", "gcPBM binding intensity (ln)": "8.74 ± 0.25"}, {"sequence": "TATATATATATATATGTATGCATGTCCTTTTTTATT [TGCATGCA_site344]", "gcPBM binding intensity (ln)": "10.1 ± 0.42"}, {"sequence": "TTTTTTTTTTTTGTAGTGCAAATTAAAAATATATGT", "gcPBM binding intensity (ln)": "8.44 ± 0.092"}, {"sequence": "ATTTTTTTTAAACGAAGTACAATTTGTGCATTGGAA [XGTACX_site8109]", "gcPBM binding intensity (ln)": "8.655 ± 0.078"}, {"sequence": "AATATATGGTTTCATGATATAAAATTCAATTTAATG [GTGCAC_negctrl_site610]", "gcPBM binding intensity (ln)": "8.12 ± 0.42"}, {"sequence": "TGTTTATCATATTTGTGTCCTCATTTTTTAGTATCA [XGTACX_site947]", "gcPBM binding intensity (ln)": "8.81 ± 0.29"}, {"sequence": "ATTTTTTTTTTTTTTTTTTTTTTTTTTTTTTTATGC [CACACA_negctrl_site1018]", "gcPBM binding intensity (ln)": "7.82 ± 0.59"}, {"sequence": "TTATTTCTTCAGAAAAAATTAAAAAATTAAACAATA [CACACA_negctrl_site169]", "gcPBM binding intensity (ln)": "8.33 ± 0.4"}, {"sequence": "AAATAAAATTATAATACATGCATACATACATATATA [TGCATGCA_site69]", "gcPBM binding intensity (ln)": "8.48 ± 0.44"}, {"sequence": "TATAAATACATACGTACACACAAATATTAAAATATA [CACACA_site5129]", "gcPBM binding intensity (ln)": "8.52 ± 0.38"}, {"sequence": "ATGTTACTCAGACACACACACATAAAAAAACAAAAA [CACACA_site3249]", "gcPBM binding intensity (ln)": "8.62 ± 0.72"}, {"sequence": "TGTGTTAATATATGAAGTACACAATACACACTAATT [XGTACX_site5469]", "gcPBM binding intensity (ln)": "8.8 ± 0.29"}]}]}
